The values that follow come from the supplement of paper PMC4967469.

Assay in all cases: Viability of human cancer cell lines after 72 h of drug (GDSC screen)
Compound in one experiment: C=C(c1ccc(C(=O)O)cc1)c1cc2c(cc1C)C(C)(C)CCC2(C)C [Bexarotene]
As to conditions: top dose 8 µM. Here is the method:
(§1)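 Human cancer cell lines in 384-well plates, medium with 10% serum, drug for 72 h over a 256-fold dose range (nine 2-fold or five 4-fold steps up to the top dose). Adherent lines were fixed and stained with the nucleic acid dye Syto60, suspension lines read with resazurin; signal relative to control wells, capped at 0 and 100%. One two-parameter sigmoid per drug and line, fitted in a mixed model over all curves with the slope shared within a line.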

Compound in a further experiment: COc1cc(C(=O)NC2CCN(C)CC2)ccc1Nc1ncc2c(n1)N(C1CCCC1)C(C)CC(=O)N2C [NPK76-II-72-1]
The conditions noted are these: top dose 10.24 µM; top dose inferred. How it is done:
as §1

Compound in another experiment: COc1cc([C@@H]2c3cc4c(cc3[C@@H](O[C@@H]3O[C@@H]5CO[C@@H](C)O[C@H]5[C@H](O)[C@H]3O)[C@H]3COC(=O)[C@H]23)OCO4)cc(OC)c1O [Etoposide]
As to conditions: top dose 16 µM. Here is the method: as §1

Compound in the next experiment: COc1ccc(C(=O)CC2(O)C(=O)Nc3c(Cl)ccc(Cl)c32)cc1 [YK 4-279]
As to conditions: top dose 10 µM. How it is done: as §1

Compound in a further experiment: Cc1ccc2nc(NCCN)c3ncc(C)n3c2c1 [BMS-345541]
The conditions noted are these: top dose 16 µM. Here is the method: as §1

Compound in another experiment: NC(=O)Nc1cc(-c2cccc(F)c2)sc1C(=O)N[C@H]1CCCNC1 [AZD7762]
As to conditions: top dose 2 µM. How it is done: as §1

Compound in another experiment: O=C(O)c1ccc(-c2c[nH]c3ncc(-c4ccccc4)cc23)cc1C1CCCC1 [GSK-650394]
The conditions noted are these: top dose 16 µM; top dose inferred. How it is done: as §1

Compound in another experiment: Oc1nc(-c2ccc(C(F)(F)F)cc2)nc2c1CSCC2 [XAV 939]
As to conditions: top dose 5 µM; top dose inferred. How it is done:
as §1

Lines with a small IC50 respond at low doses; a limit (>, <) means that the fit lies beyond the doses tested. AUC, from the same fit, is the share of area under the viability curve across the 256-fold dose range: 1 means no effect, lower means more sensitive. For some assays here: The top dose, if marked as inferred, comes from the curve model; the source does not state it.

As to Hep 3B2_1-7 (liver, adherent), the AUC with Bexarotene was determined as 0.96; with NPK76-II-72-1, 0.912; with Etoposide, 0.451; with YK 4-279, 0.829; in the experiment with BMS-345541 it was 0.985; with AZD7762, 0.686. Moreover, the figures for the AUC with GSK-650394 and with XAV 939 were 0.74 and 0.957, respectively. Moreover, the IC50 (commonly the midpoint of a concentration-inhibition curve) is over 8 µM with Bexarotene; over 10.2 µM with NPK76-II-72-1; 0.734 µM with Etoposide; 6.19 µM in the experiment with YK 4-279; over 16 µM with BMS-345541; 0.414 µM with AZD7762. The values for the IC50 with GSK-650394 and with XAV 939 were 4.84 µM and over 5 µM, respectively.

Turning to Hs633T (fibrosarcoma, adherent), the AUC was 0.913 with Bexarotene; 0.964 with NPK76-II-72-1; 0.203 with Etoposide; 0.698 in the experiment with YK 4-279; 0.904 with BMS-345541; 0.588 with AZD7762. Further, the AUC is 0.64 with GSK-650394 and 0.904 with XAV 939. The concentration for half-maximal inhibition (IC50) with Bexarotene was 7.94 µM; with NPK76-II-72-1 it was over 10.2 µM; with Etoposide it was 0.166 µM; with YK 4-279, 1.99 µM; in the experiment with BMS-345541, 14.4 µM; in the experiment with AZD7762, 0.208 µM. Moreover, the IC50 with GSK-650394 was 2.26 µM; in the experiment with XAV 939, 4.49 µM.

Hs683 (glioma, adherent): the AUC amounted to 0.971 with Bexarotene; 0.904 in the experiment with NPK76-II-72-1; 0.498 with Etoposide; 0.65 with YK 4-279; 0.921 in the experiment with BMS-345541; 0.767 with AZD7762. Moreover, the AUC turned out to be 0.781 with GSK-650394 and 0.987 in the experiment with XAV 939. Also, the IC50 was over 8 µM in the experiment with Bexarotene; over 10.2 µM with NPK76-II-72-1; 0.99 µM with Etoposide; 1.63 µM in the experiment with YK 4-279; over 16 µM with BMS-345541; 0.75 µM with AZD7762. Also, the IC50 with GSK-650394 was 6.73 µM; with XAV 939, over 5 µM.

With Hs766T (pancreas, adherent), the AUC came out at 0.959 with Bexarotene; 0.984 in the experiment with NPK76-II-72-1; 0.975 with Etoposide; 0.876 with YK 4-279; 0.976 with BMS-345541; 0.679 in the experiment with AZD7762. For the same cell line, the AUC with GSK-650394 came out at 0.974; in the experiment with XAV 939 it was 0.977. The half-maximal inhibitory concentration (IC50) with Bexarotene is over 8 µM; with NPK76-II-72-1 it was over 10.2 µM; with Etoposide, over 16 µM; in the experiment with YK 4-279 it was over 10 µM; with BMS-345541 it was over 16 µM; with AZD7762, 0.467 µM. In addition, the IC50 was over 16 µM with GSK-650394 and over 5 µM with XAV 939.

For Hs939-T (melanoma, adherent), the AUC with Bexarotene is 0.922; with NPK76-II-72-1, 0.982; with Etoposide it was 0.77; with YK 4-279, 0.799; with BMS-345541 it was 0.983; in the experiment with AZD7762, 0.71. In addition, the AUC worked out at 0.978 with GSK-650394 and 0.982 in the experiment with XAV 939. Further, the 50% inhibitory concentration (IC50) in the experiment with Bexarotene was over 8 µM; in the experiment with NPK76-II-72-1, over 10.2 µM; with Etoposide, 6.67 µM; with YK 4-279, 5.33 µM; in the experiment with BMS-345541, over 16 µM; with AZD7762 it was 0.521 µM. Moreover, the results for the concentration for half-maximal inhibition (IC50) with GSK-650394 and with XAV 939 were over 16 µM and over 5 µM, respectively.

Turning to Hs-578-T (breast, adherent), the AUC is 0.959 in the experiment with Bexarotene; 0.987 with NPK76-II-72-1; 0.987 in the experiment with Etoposide; 0.725 in the experiment with YK 4-279; 0.984 in the experiment with BMS-345541; 0.709 with AZD7762. The AUC came to 0.96 in the experiment with GSK-650394 and 0.977 with XAV 939. Besides, the IC50 in the experiment with Bexarotene is over 8 µM; in the experiment with NPK76-II-72-1, over 10.2 µM; in the experiment with Etoposide it was over 16 µM; with YK 4-279 it was 2.86 µM; with BMS-345541 it was over 16 µM; in the experiment with AZD7762, 0.506 µM. Also, the figures for the 50% inhibitory concentration (IC50) with GSK-650394 and with XAV 939 were over 16 µM and over 5 µM, respectively.

As for HuCCT1 (biliary tract, adherent), the AUC in the experiment with Bexarotene amounted to 0.891; with NPK76-II-72-1 it was 0.873; with Etoposide it was 0.602; with YK 4-279, 0.686; with BMS-345541, 0.867; with AZD7762, 0.754. Further, the AUC was 0.873 in the experiment with GSK-650394 and 0.901 in the experiment with XAV 939. The 50% inhibitory concentration (IC50) with Bexarotene was over 8 µM; with NPK76-II-72-1, over 10.2 µM; with Etoposide it was 1.97 µM; with YK 4-279, 2.22 µM; with BMS-345541, over 16 µM; in the experiment with AZD7762 it was 0.746 µM. The IC50 was over 16 µM with GSK-650394 and over 5 µM with XAV 939.

HuO9 (osteosarcoma, adherent): the AUC with Bexarotene worked out at 0.98; with NPK76-II-72-1, 0.979; in the experiment with Etoposide, 0.507; in the experiment with YK 4-279, 0.753; with BMS-345541, 0.849; with AZD7762, 0.613. In addition, the AUC was found to be 0.984 in the experiment with GSK-650394 and 0.975 with XAV 939. Besides, the 50% inhibitory concentration (IC50) in the experiment with Bexarotene was over 8 µM; with NPK76-II-72-1, over 10.2 µM; with Etoposide, 1.04 µM; in the experiment with YK 4-279, 3.66 µM; with BMS-345541 it was 14.1 µM; in the experiment with AZD7762, 0.265 µM. For the same cell line, the results for the IC50 in the experiment with GSK-650394 and in the experiment with XAV 939 were over 16 µM and over 5 µM, respectively.
